These results are taken from the antibiotic and cytotoxicity screens of Wong et al. (2023).

The subject of one assay is HSkMC. The assay is described as follows: cytotoxicity call (relative viability < 0.9). The settings on record: 10 µM.
The next assay relates to S. aureus RN4220. Briefly: growth inhibition call (relative growth <= 0.2). As to conditions: 50 µM.

Molecules are shown by their SMILES. The list shows a part of the results.

Turning to `C[C@@H]1CCCCO[C@@H](CN(C)C(=O)C2CCCCC2)[C@H](C)CN([C@H](C)CO)C(=O)c2cc(NC(=O)Nc3cccc4ccccc34)ccc2O1`, the cytotoxicity call in the assay with HSkMC is “inactive”. Moreover, the growth inhibition call in the assay with S. aureus RN4220 was “inactive”.

Take `COc1ccc(S(=O)(=O)Nc2ccc3c(c2)C(=O)N([C@H](C)CO)C[C@H](C)[C@@H](CN(C)S(=O)(=O)c2ccc(Cl)cc2)OCCCC[C@H](C)O3)cc1`: in the assay on HSkMC, the cytotoxicity call is “inactive”. Further, in the assay with S. aureus RN4220, the growth inhibition call was “inactive”.

For the compound `C[C@H](C(=O)O)N1CCCCC1`, in the assay on HSkMC, the cytotoxicity call is “inactive”. In addition, the growth inhibition call with S. aureus RN4220 was “inactive”.

As for `CC(C)NC(=O)Nc1ccc2c(c1)C(=O)N([C@@H](C)CO)C[C@H](C)[C@@H](CN(C)C(=O)Nc1ccc(F)cc1)OCCCC[C@H](C)O2`, the cytotoxicity call in the assay on HSkMC (human skeletal muscle cells) is “inactive”. Moreover, the growth inhibition call in the assay on S. aureus RN4220 was “inactive”.

Regarding `COc1ccccc1S(=O)(=O)N[C@H]1CC[C@H](CCNC(=O)C2CC2)O[C@@H]1CO`, in the assay with HSkMC, the cytotoxicity call was “inactive”. Also, in the assay with S. aureus RN4220, the growth inhibition call was “inactive”.

Consider `CC(C)NC(=O)Nc1ccc2c(c1)C(=O)N([C@@H](C)CO)C[C@H](C)[C@@H](CN(C)S(=O)(=O)c1ccc(F)cc1)O2`, for which the cytotoxicity call with HSkMC is “inactive”. Moreover, the growth inhibition call in the assay with S. aureus RN4220 is “inactive”.

In the case of `O=C(OC[C@H]1O[C@@H](OC(=O)c2cc(O)c(O)c(O)c2)[C@H](O)[C@@H](O)[C@@H]1O)c1cc(O)c(O)c(O)c1`, in the assay with HSkMC, the cytotoxicity call is “inactive”. The growth inhibition call in the assay with S. aureus RN4220 is “inactive”.

Regarding `C[C@H](CO)N1C[C@H](C)[C@H](CN(C)Cc2ccc(C(F)(F)F)cc2)Oc2ccc(NC(=O)CCCCCC(=O)Nc3ccccc3N)cc2C1=O`, the cytotoxicity call with HSkMC was “inactive”. The growth inhibition call with S. aureus RN4220 was “inactive”.

Regarding `COc1ccc(S(=O)(=O)Nc2ccc3c(c2)CC(=O)N([C@H](C)CO)C[C@@H](C)[C@H](CN(C)S(=O)(=O)c2cn(C)cn2)O3)cc1`, in the assay with HSkMC, the cytotoxicity call is “inactive”. In addition, the growth inhibition call in the assay on S. aureus RN4220 was “inactive”.

As to `CO[C@H]1O[C@H](CO)[C@@H](OC(=O)Nc2cccc(F)c2)[C@@H]2OC(=O)[C@H](Cc3cccc(Br)c3)C/C=C/C[C@@H](Cc3cccc(Br)c3)C(=O)O[C@@H]12`, the cytotoxicity call in the assay with HSkMC was “inactive”. Besides, the growth inhibition call in the assay with S. aureus RN4220 is “inactive”.
